# Measured values from paper PMC6919601, “Identification of Plasmodium dipeptidyl aminopeptidase allosteric inhibitors by high throughput screening” (PLoS ONE, 2019).
# Where “and” joins values, the source holds several entries; their conditions need not be identical. Identical values can stand only once. Out of some 110,000 compounds screened, about 230 (0.21%) showed an effect of 50% or more. Some of the results follow.
# Biological target: DPAP1 (Plasmodium falciparum, UniProt Q8IIJ9)
# Assay: primary screen, percent inhibition; read by cleavage of a fluorogenic dipeptide substrate; higher = more effect of the substance
# Set-up: species or system P. falciparum D10 trophozoite lysates; single well
# 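Also: 30 min substrate incubation versus DMSO and 10 µM JCP410 controls.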
# Chain of DPAP1 (Q8IIJ9 whole entry, looked up): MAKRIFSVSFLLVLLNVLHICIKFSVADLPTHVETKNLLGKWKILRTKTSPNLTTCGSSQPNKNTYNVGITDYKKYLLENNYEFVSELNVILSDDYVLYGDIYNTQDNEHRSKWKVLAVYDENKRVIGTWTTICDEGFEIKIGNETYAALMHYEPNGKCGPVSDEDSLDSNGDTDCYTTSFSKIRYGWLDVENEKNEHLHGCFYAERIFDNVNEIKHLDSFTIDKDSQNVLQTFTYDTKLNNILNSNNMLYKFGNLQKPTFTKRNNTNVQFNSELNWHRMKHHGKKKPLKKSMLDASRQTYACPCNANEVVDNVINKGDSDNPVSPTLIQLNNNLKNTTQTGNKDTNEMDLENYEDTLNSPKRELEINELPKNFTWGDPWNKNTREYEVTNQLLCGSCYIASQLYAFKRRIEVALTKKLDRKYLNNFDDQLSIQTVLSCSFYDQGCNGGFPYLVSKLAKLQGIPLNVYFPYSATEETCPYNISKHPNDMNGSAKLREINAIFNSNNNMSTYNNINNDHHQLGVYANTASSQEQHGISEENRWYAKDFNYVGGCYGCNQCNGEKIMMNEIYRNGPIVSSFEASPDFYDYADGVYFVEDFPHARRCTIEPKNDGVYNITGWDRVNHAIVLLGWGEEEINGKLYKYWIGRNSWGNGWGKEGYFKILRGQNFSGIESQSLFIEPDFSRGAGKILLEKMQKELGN
row,Compound,% Inhibition @ 10 uM
1,CC(C)(O)C(=O)/C=C/c1ccccc1,-5.5%
2,C=CCNC(=O)C1CC=CCC1C(=O)Nc1ccc(OC)cc1 (stereo not shown),1.42%
3,COc1ccccc1N1C(=O)NC(=O)/C(=C\c2ccc(Cl)cc2Cl)C1=O,2.58%
4,O=C1CCSc2c1cccc2C(=O)NCc1ccccn1,-0.495%
5,O=C(O)c1ccccc1Nc1ccc(F)cc1,-0.891%
6,CCCN(CCC)c1ccc([N+](=O)[O-])c2nonc12,4.15%
7,COc1cc(C(=O)ON2C(=O)c3ccccc3C2=O)cc(OC)c1OC,26.3%
8,CCC1CCc2c(sc(NC(=O)c3cccc(OC)c3OC)c2C(N)=O)C1 (stereo not shown),3.83%
9,OC(c1ccccc1)(C1CCCCC1)C(CN1CCOCC1)c1ccccc1 (stereo not shown),-5.92%
10,CC(=O)c1ccc(NC(=O)c2ccc(C)cc2)cc1,-7.18%
11,CCNC(=O)CN(c1ccc(Cl)cc1)S(=O)(=O)c1ccc(C)cc1,22.2%
12,CS(=O)(=O)N(CC(=O)N1CCN(c2cccc(Cl)c2)CC1)c1cc(Cl)ccc1Cl,16.2%
13,COC(=O)c1cc(S(=O)(=O)NCCN(Cc2ccco2)C(C)(C)C)c[nH]1,-4.52%
14,CC(=O)c1c(C)nc2ccccc2c1N,2.77%
15,Cc1c(C(c2ccc(O)cc2)c2c(C)n(C)n(-c3ccccc3)c2=O)c(=O)n(-c2ccccc2)n1C,-6.44%
16,Cc1ccc(S(=O)(=O)N2C(=O)c3cccc4c(Br)ccc2c34)cc1,2.69% and 4.31%
17,COCCNC(=O)c1ccc(CSc2nc3ccncc3n2Cc2ccccc2C)cc1,1.41%
18,Cc1ccccc1Cn1c(C)cc(C)c(C#N)c1=O,-0.406%
19,Cc1ccc(OCC(=O)O/N=C(\N)c2cccnc2)c(Br)c1,1.84%
20,O=c1c2ccccc2nc(CN2CCN(c3ccccn3)CC2)n1-c1ccc(F)cc1,0.245%
21,Cc1cc(C)n(-c2nc3ccccc3nc2NCCc2ccc(Cl)cc2)n1,0.166%
22,Cc1nn(CC(=O)NC(C)C)c(=O)c2cc3occc3n12,-2%
23,COc1ccc(-c2cn3c(n2)sc2cc(C(=O)NC(C)c4ccc5c(c4)OCCO5)ccc23)cc1 (stereo not shown),5.11%
24,Cc1cccc(OCC(=O)Nc2cc(C)c(C)cc2O)c1,-3.13%
25,CCn1cc(C2=NOC(C(=O)Nc3cc(C)nn3-c3ccccc3)C2)c(C)n1 (stereo not shown),-1.37%

row,Compound,% Inhibition @ 10 uM
1,N#CC1=C(SCC(=O)Nc2ccccc2)NC(=O)CC1c1ccc(F)cc1 (stereo not shown),0.673%
2,O=C(C1CCCN(c2ncnc3c2nc2n3CCCCC2)C1)N1CCN(c2ncccn2)CC1 (stereo not shown),-0.238%
3,Clc1ccc(OCCCCCCn2ccnc2)cc1,-6.44%
4,Cc1cccnc1NC(=O)C1CCN(S(=O)(=O)c2c(C)noc2/C=C/c2cccs2)CC1,-3.09%
5,CN(C)S(=O)(=O)c1ccc(C(=O)C2=C(O)C(=O)N(Cc3cccnc3)C2c2cccnc2)cc1 (stereo not shown),-5.35%
6,CN1CCN(CC(O)Cn2cnc3c2c(=O)n(C)c(=O)n3C)CC1 (stereo not shown),2.24%
7,N#CCNC(=O)C(CC(=O)c1ccc(-c2ccc(Cl)cc2)cc1)CS(=O)(=O)Cc1ccccc1 (stereo not shown),-5.21%
8,COc1ccccc1NC(=O)C1CC(=O)N(C)/C(=N/c2cccc(F)c2)S1 (stereo not shown),0.674%
9,Cc1cc(C)c(C#N)c(SCc2ccccc2)n1,-0.305%
10,Cc1ccc(OCC(=O)Nc2ccc(N3CCN(C)CC3)cc2)cc1C,-2.82%
11,COc1ccc(OC)c2sc(N(CCCN(C)C)C(=O)c3cccc(Cl)c3)nc12,0.49%
12,COc1ccc(NC(=O)CN(c2ccc(OC)c(Cl)c2)S(C)(=O)=O)c(OC)c1,1.89%
13,COc1cc(C(=O)OCCCn2c(=O)c3c(ncn3CC(O)CO)n(C)c2=O)cc(OC)c1OC (stereo not shown),-1.22%
14,CCN(CC)C(=O)CN(c1cc2c(cc1OC)oc1ccccc12)S(=O)(=O)c1ccccc1,-5.23%
15,Cc1ccc(-c2c(C#N)c(N)nc3c2CCCC3)s1,2.09%
16,O=C(Cc1ccccc1)Nc1ccc2c(c1)S(=O)(=O)c1cc(NC(=O)Cc3ccccc3)ccc1-2,-10.9%
17,COc1cc2ccccc2cc1C(=O)Nc1nc2c(s1)CCc1ccccc1-2,0.997%
18,COc1ccc(N2C(=O)NC(NC(=O)c3cccnc3)(C(F)(F)F)C2=O)cc1 (stereo not shown),-0.425%
19,CCOc1ccc(NC(=O)CSC2=C(C#N)C(c3cccs3)C3=C(O)CC(C)(C)CC3=N2)cc1 (stereo not shown),0.751%
20,CCCC(=O)Nc1cc(N(C)C)nc2c1CCC2,-3.63%
21,CN1CCN(C(=O)Cn2cnc3c2c(=O)n(C)c(=O)n3C)CC1,-5.83%
22,O=C(NC1CCN(c2ncccn2)CC1)c1ccco1,0.596%
23,CC(C)C[C@H](NC(=O)c1ccc(-c2ccsc2C(N)=O)cc1)C(=O)NCC#N,1.35%
24,Fc1ccc(-n2ncc3c(NCCc4ccccc4)ncnc32)cc1,1.91%
